About 340 (0.77%) of roughly 44,000 compounds were called active. Roughly 5% stayed inconclusive and do not appear here. The call rests on the fitted dose curve; in most records, active means well fitted inhibition curve with a large enough effect; inconclusive means small, poorly fitted or top-dose-only effect; inactive means flat fitted curve, though single readings scatter. The list shows a part of the results.
Experiment: Acumen qHTS Assay for Inhibitors of the mTORC1 Signaling Pathway in MEF (Tsc2-/-, p53-/-) Cells: Sytravon;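 further: plate controls were DMSO for no effect and rapamycin for full effect; nearly all actives have a fitted effect of over 50% in size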
Settings: phospho-rpS6 immunofluorescence/PI, 24 h; series mostly up to 38.3 µM; activity change, negative = inhibition: at the top concentration
How it was run: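 Cell-based qHTS: Tsc2-/- p53-/- MEF, 24 h cpd, 37 °C; fix/perm, anti-phospho-S6 Alexa-488 + PI; Acumen 488 nm scan; pS6/PI ratio, % positive cells; rapamycin 7.5 nM = inhibition ref; PI count = viability.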

Activity change, negative = inhibition, inactive:
CN(C(=O)CSc1nnc(COc2ccccc2)o1)c1ccccc1 1.52%, CC(=O)c1cccc(NS(=O)(=O)c2cc3c(cc2C)n(C)c(=O)c(=O)n3C)c1 -2.1%, Cc1cccc(NC(=O)C(=O)NCC(c2ccc3c(c2)OCO3)N2CCN(c3ccccc3)CC2)c1 (configuration not stated) -0.94%, CCOCCCNC(=O)C(c1ccccc1)N1Cc2ccccc2C1=O (configuration not stated) 1.18%, O=C(Nc1sc2c(c1C(=O)Nc1ccccc1)CCC2)c1ccc(Br)cc1 6.67%, CCc1ccc(NC(=O)Cn2c(=O)n(CCC(=O)NCCc3ccc(Cl)cc3)c(=O)c3ccccc32)cc1 8.88%, COc1ccc(C(=O)Nc2nc(-c3nnn(-c4ccc(C(C)C)cc4)c3C)ns2)cc1 -5.61%, COc1ccccc1CCNC(=O)C(C)Sc1nc(-c2ccccc2)cc(C(F)(F)F)n1 (configuration not stated) 3.03%, O=C(Cn1ncn2c(cc3ccccc32)c1=O)NCc1ccc(F)cc1 1.12%, COc1ccc(F)cc1S(=O)(=O)Nc1cccc(-c2ccc(N3CCC(C)CC3)nn2)c1 -4.18%, Cc1ccc(-c2cc(-c3ccccc3)c(C#N)c(SCC(O)CS(=O)(=O)Cc3ccccc3)n2)cc1 (configuration not stated) 8.09%, COc1ccc(Nc2ncnc3c2nc2n3CCCCC2)cc1 0.485%, CCCOc1ccc(CNC(=O)c2[nH]c3cc(OC)ccc3c2Sc2ccccc2)cc1 -11.6%, CC(=O)Nc1ccc(N(C(=O)Cn2nnc3ccccc32)C(C(=O)NCc2ccccc2)c2ccc(C)cc2)cc1 (configuration not stated) -12.4%, COc1ccc(CCNC(=O)c2c(C)oc3ncn(C)c(=O)c23)c(OC)c1 -4.19%, O=C1C(c2ccc(F)cc2)N(CCc2ccccc2)C(=O)CN1C1CCCCCC1 (configuration not stated) 5.5%, CCN(C(=O)CSc1nc2ccccc2n1Cc1ccc(F)cc1Cl)c1ccccc1 5.9%, CCOC(=O)C(Cc1c[nH]c2ccccc12)NC(=O)COc1ccc(CC)cc1 (configuration not stated) 6.77%, Cc1cc(NC(=O)CN2CCC(C)CC2)nc2c1c(=O)oc1ccccc12 7.03%, COc1ccc(C)cc1N(C)C(=O)CCc1nc(-c2ccccc2F)no1 -22.5%, CCOC(=O)c1c(C)[nH]c(C)c1S(=O)(=O)N1CCC(C(=O)NCc2ccccc2Cl)CC1 0.814%, Cc1ccc(Cl)cc1NC(=O)CN1C(=O)CCc2ccccc21 0%, CCCCNc1oc(-c2ccc(COc3ccc(OC)cc3)o2)nc1C#N -8.43%, COc1ccc(CC(=O)NCc2nc3cccnc3n2Cc2ccccc2)cc1 -0.644%, COC(=O)c1ccccc1NC(=O)CCCn1c(=O)c2cccn2c2cccnc21 -2.7%, CN(C)c1ccc(Nc2ncnc3sc4c(c23)CCCC4)cc1 0%, O=C(Cn1cnc2ccccc2c1=O)NCCC(=O)Nc1ccc(F)cc1 4.99%, CC(C)COc1ccc(C(=O)Nc2cc(-c3ccccc3)no2)cc1 1.76%, COc1cccc(N2CCN(S(=O)(=O)c3cc(-c4cc(C)no4)ccc3C)CC2)c1 -2.32%, CCCCN(CC)CCCNC(=O)Cn1ncc2c([nH]c3ccc(C)cc32)c1=O 7%, O=c1c2cn[nH]c2nc(SCc2c(F)cccc2F)n1-c1ccc(Cl)cc1 3.51%, CCOc1cccc(C(=O)Nc2nc3c(s2)CC(C(C)(C)C)CC3)c1 (configuration not stated) 2.75%, COc1ccc(N(CC(=O)N2CCN(c3ccc(F)cc3)CC2)S(=O)(=O)c2c(C)noc2C)cc1 -9.6%, O=C(NCc1ccco1)c1ccc2c(c1)N(Cc1ccc(F)cc1)C(=O)c1ccccc1S2(=O)=O -18.3%, COc1cccc(CNC(=O)c2cc(Sc3cccc(Cl)c3)nc3ccccc23)c1 3.22%, Cc1ccc(/C=C/C(=O)Nc2ccccc2C(N)=O)o1 -0.927%, COc1cc(OC)cc(-c2nc3n(n2)C(c2ccccc2)C(C(N)=O)=C(C)N3)c1 (configuration not stated) 3.12%, COc1ccccc1NC(=O)COc1ccc(-c2nn(C)c(=O)c3ccccc23)cc1 -1.44%, Cc1c(C(=O)N2CCOCC2)oc2c1-c1nn(CC(=O)NCc3cccc(Cl)c3)cc1CC2 -1.07%, CCOC(=O)c1c(NC(=O)COc2cccc(C)c2C)sc2c1CCC(CC)C2 (configuration not stated) -0.755%, Cn1c(=O)oc2cc(S(=O)(=O)N3CCC(C(=O)N4CCN(c5ccccc5F)CC4)CC3)ccc21 -0.552%, COc1cc(Cl)c(C)cc1NC(=O)CC(c1ccc(F)cc1)N1Cc2ccccc2C1=O (configuration not stated) -1.01%, Cc1ccc(CCNC(=O)c2c(C)oc3ncn(CC(C)C)c(=O)c23)cc1 -8.39%, CC(C)(C)OC(=O)N1CCC(c2c(C(=O)NCCc3ccccc3)cnn2-c2ccc(F)cc2F)CC1 3.54%, COc1ccc(-c2c(C)c3ccc(O)c(CN4CCN(CCO)CC4)c3oc2=O)cc1OC -4.5%, O=C(NCc1cccc(F)c1)c1ccc(NC(=O)c2nsc3ccccc23)cc1 2.77%, CC(C)(C)c1ccc(C(=O)Nc2onc3c2CCCC3)cc1 1.18%, COc1ccc(OC)c(S(=O)(=O)Nc2cccc(-c3ccc(N4CCCCC4)nn3)c2)c1 -0.777%, Cc1ccc(C)c(N2CCN(C(=O)CSCc3ccccc3Cl)CC2)c1 -9.49%, COc1cccc(NC(=O)CC2Nc3cc(C)c(C)cc3NC2=O)c1 (configuration not stated) -12.4%, Cc1cccc(NC(=O)CCS(=O)(=O)c2cc(Br)cc3c2N(C(=O)C2CC2)CC3)c1 -6.29%, Cc1ccc(CNC(=O)CC2Oc3ccc(Cl)cc3NC2=O)cc1 (configuration not stated) 2.96%, CC(C)(C)c1ccc(C(=O)NCC(c2ccc(Cl)cc2)N2CCOCC2)cc1 (configuration not stated) -6.42%, CCOc1ccc(NS(=O)(=O)c2ccc3c4c(cccc24)C(=O)N3)cc1 -4.13%, Cc1ccc(CN(Cc2ccco2)C(=O)COc2ccc(C)c(C)c2)cc1 -12.2%, CCc1ccc(S(=O)(=O)Nc2cccc(-c3ccc(N4CCOCC4)nn3)c2)cc1 -6.14%, CC(=O)c1cccc(NC(=O)CSc2nc3ccccc3nc2Cc2ccc(F)cc2)c1 0.408%, CC(=O)Nc1ccccc1-c1nc2ccccc2n(CC(=O)Nc2cccc(C(F)(F)F)c2)c1=O -15%, COc1ccc(/C=C/C(=O)Nc2nc(-c3cccs3)ns2)cc1OC -9.36%, Cc1ccc(CO)cc1Nc1ncnc2onc(-c3ccc(F)cc3)c12 2.88%, CCS(=O)(=O)N1CC(=O)N(c2ccc(Cl)cc2)C(C)(C(=O)NC2CCCCC2)C1 (configuration not stated) -6.66%, CCOc1cccc2cc(S(=O)(=O)c3ccccc3F)c(=O)oc12 1.53%, Cc1ccc(CNC(=O)c2ccc3nc(SCc4ccc(F)cc4)[nH]c3c2)cc1 0%, CC1=C(c2ccc(C(C)C)cc2)S(=O)(=O)N=C1N1CCC(C(=O)NCCc2ccco2)CC1 -5.61%, COc1cccc(-c2nc(SCC(=O)NC3CCCC3)c(-c3ccc(C)cc3)[nH]2)c1 -15.3%, CCN(CC)C(=O)CSc1nc(-c2ccc(C)cc2)nc2c1Cc1c(CO)cnc(C)c1O2 -0.561%, COc1ccc(N2CC(NC(=O)c3ccc(S(=O)(=O)N4CCCCC4)cc3)CC2=O)cc1 (configuration not stated) -3.23%, Cc1ccc(C(=O)Nc2c(C)nc3ccccn3c2=O)cc1C -27.3%, CCc1cccc(NC(=O)C(Cc2ccccc2)n2cccc2)c1 (configuration not stated) -3.74%, CCOc1ccc(CNC(=O)c2ccc3c(c2)nc2n3CCOC2)cc1OC -19%, CC1=C(C(=O)Nc2ccc(F)cc2F)C2(CCN(C(C)C)CC2)OC1=O -0.896%, CCc1ccc(NC(=O)CN(c2cc(C)cc(C)c2)S(=O)(=O)c2c(C)[nH]c(=O)[nH]c2=O)cc1 0.244%, CCC1Oc2ccc(Cl)cc2N(CC(=O)NCCc2ccc(Cl)cc2)C1=O (configuration not stated) -13.6%, CCCN1Cc2cccc(C(=O)Nc3cccc(C(=O)OCC)c3)c2C1=O -13.8%, CCc1cccc(C)c1NC(=O)Cn1nc(C)c2nn(-c3ccc(Cl)cc3)c(C)c2c1=O 0%, COc1ccc(/C=C/C(=O)Nc2ccc3nc(N4CCC(C)CC4)cc(C)c3c2)cc1 -9.92%, COCCNc1nc(NCc2cccc(Cl)c2)c2cnn(C)c2n1 11.4%, COc1ccc2c(c1)cc1c(=O)n(CC(=O)NC3CC3)nc(C)n12 0.318%, CCN(c1ccccc1)S(=O)(=O)c1c(-c2ccc(C)cc2)csc1C(=O)OC -5.42%, COc1ccccc1C(=O)Nc1ccc2oc(-c3cccc4c(Br)cccc34)nc2c1 1.61%, O=[N+]([O-])c1cc(-c2nc(-c3ccccc3)no2)ccc1NC1CCCCC1 1.96%, O=C(Cc1csc2nc(-c3ccc(F)cc3)cn12)NCc1ccccc1 -3.78%, C=Cc1ccc(Cn2c(C)c(CNCc3ccccc3C)c(C(=O)O)c2C)cc1 -7.48%, COc1ccccc1CNC(=O)CCn1c(=O)c2cccn2c2cccnc21 2.77%, Cc1ccc(NC(=O)c2ccc3c(O)c(S(=O)(=O)c4ccccc4)c(=O)[nH]c3c2)cc1Cl -3.75%, O=C(Nc1nnc(S(=O)(=O)N2CCCCC2)s1)c1ccccc1Br 6.87%, Cc1ccc(-c2nnc(Nc3ccc(C(=O)N(C)C)cc3)c3ccccc23)cc1S(=O)(=O)N(C)C 1.54%, CCN(C(=O)CN1C(=O)COc2ccc(S(=O)(=O)N3CCOCC3)cc21)c1ccc(OC)cc1 -1.65%, CC(C)(C)CC(=O)NCC(c1ccc2c(c1)OCO2)N1CCOCC1 (configuration not stated) -0.0343%, O=C(Nc1cccc(F)c1)c1ccc2c(c1)N(Cc1ccccc1)C(=O)c1ccccc1S2(=O)=O -0.479%, O=C(COc1ccc(Cl)cc1)OCc1cc(=O)n2nc(C3CC3)sc2n1 -7.84%, COc1ccc(C(=O)NCC(c2ccc(N(C)C)cc2)N2CCc3ccccc32)cc1OC (configuration not stated) 9.06%, COC(=O)c1ccccc1NC(=O)C1CCN(C(=O)N2CC(C)Oc3ccccc32)CC1 (configuration not stated) 3.18%, Cc1cccc(NC(c2ccccc2F)c2ccc3ccc(C)nc3c2O)n1 (configuration not stated) -7.83%, COc1ccc(-c2nc3ccccc3s2)cc1NC(=O)c1ccc(F)cc1 -0.929%, Cc1cccc(C(C)C)c1NC(=O)c1ccc2c(c1)CCN2S(C)(=O)=O -7.38%, Cc1nn2c(=O)cc(COC(=O)c3cccc(NC(=O)c4ccc(F)cc4)c3)nc2s1 10.8%

— PubChem BioAssay AID493208 (National Center for Advancing Translational Sciences (NCATS), 2011)
